Out of some 310,000 compounds screened, about 14,000 (4.5%) showed an effect of 50% or more. The effect is printed as a negative number. This is one part of the list.
biological target: human ether-à-go-go-related gene (hERG) potassium channel (human, UniProt Q12809); experiment: primary screen, population patch clamp on CHO cells stably expressing hERG
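Note: peak tail current of the secondary pulse compared with the same well before compound.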

Chain of human ether-à-go-go-related gene (hERG) potassium channel (Q12809 whole entry, looked up): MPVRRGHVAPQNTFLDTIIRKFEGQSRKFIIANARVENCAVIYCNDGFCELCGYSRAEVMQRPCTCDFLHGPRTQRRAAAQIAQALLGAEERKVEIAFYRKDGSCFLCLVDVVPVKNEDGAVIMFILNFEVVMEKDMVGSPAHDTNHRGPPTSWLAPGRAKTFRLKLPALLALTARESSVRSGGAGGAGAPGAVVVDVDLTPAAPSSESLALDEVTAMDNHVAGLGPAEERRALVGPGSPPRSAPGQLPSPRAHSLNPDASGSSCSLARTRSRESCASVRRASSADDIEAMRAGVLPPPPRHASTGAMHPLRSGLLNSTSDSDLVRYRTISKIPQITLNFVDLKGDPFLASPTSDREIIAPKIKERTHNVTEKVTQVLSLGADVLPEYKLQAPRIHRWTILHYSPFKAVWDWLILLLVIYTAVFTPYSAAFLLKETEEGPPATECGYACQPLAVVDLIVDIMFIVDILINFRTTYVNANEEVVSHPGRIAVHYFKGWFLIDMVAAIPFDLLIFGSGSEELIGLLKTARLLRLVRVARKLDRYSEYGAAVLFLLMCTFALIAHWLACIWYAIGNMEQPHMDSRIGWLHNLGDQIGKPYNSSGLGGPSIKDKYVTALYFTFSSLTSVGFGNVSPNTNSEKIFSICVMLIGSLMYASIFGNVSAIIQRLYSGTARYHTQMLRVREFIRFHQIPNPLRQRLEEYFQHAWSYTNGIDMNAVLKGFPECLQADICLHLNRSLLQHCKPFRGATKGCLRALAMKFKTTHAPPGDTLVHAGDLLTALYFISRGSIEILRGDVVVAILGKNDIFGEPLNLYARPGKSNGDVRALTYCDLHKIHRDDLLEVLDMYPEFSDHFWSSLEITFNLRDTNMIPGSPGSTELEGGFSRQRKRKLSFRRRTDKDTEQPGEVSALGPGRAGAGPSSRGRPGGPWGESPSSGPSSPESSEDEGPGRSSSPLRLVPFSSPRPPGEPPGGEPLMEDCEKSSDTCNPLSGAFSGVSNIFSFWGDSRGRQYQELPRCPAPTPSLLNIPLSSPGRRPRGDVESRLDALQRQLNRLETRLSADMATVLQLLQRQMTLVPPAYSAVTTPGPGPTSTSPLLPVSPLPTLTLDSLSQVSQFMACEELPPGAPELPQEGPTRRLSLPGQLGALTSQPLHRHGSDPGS

Row | Structure (SMILES) | hERG current change (%, negative = inhibition) at 10uM
1 | CCOc1ccc(CCNC(=O)c2ccc(CS(=O)Cc3ccc(Cl)cc3)o2)cc1 (stereo not shown) | -14.1%
2 | O=C(c1ccc2c(=O)n3c(nc2c1)CCCCC3)N1CCN(c2ccccc2)CC1 | -17.2%
3 | Cc1ccc(-c2nn(-c3ccccc3)cc2C(=O)NCCCN2CCOCC2)cc1 | 5.05%
4 | CCC(C)[C@H](NC(=O)[C@@H]1Cc2ccccc2CN1)C(=O)NCc1ccc(OC)cc1 (stereo partly shown) | -32.7%
5 | C/C(=N\NC(=O)Cc1c(Cl)cccc1Cl)c1cccnc1 | 6.55%
6 | Cc1cn(Cc2ccccc2Cn2cc(C)c(=O)[nH]c2=O)c(=O)[nH]c1=O | 13.1%
7 | COc1ccc2c(c1OC)C(=O)OC2Nc1nc(-c2ccc(-c3ccccc3)cc2)cs1 (stereo not shown) | 17%
8 | CNS(=O)(=O)c1cccc(C(=O)NCC2(N3CCOCC3)CCCCC2)c1 | 9.92%
9 | Cc1cc(NC(=O)CSc2cn(CCNC(=O)c3ccc(Cl)cc3)c3ccccc23)no1 | -7.29%
10 | CCN1CCN(CCCCOc2ccccc2F)CC1.O=C(O)C(=O)O | -9.65%
11 | CCOP(=O)(O)c1ccccc1OCCCCCOc1ccccc1P(=O)(O)OCC | 14.5%
12 | CC1(c2nnc(-c3cccc(Cl)c3)o2)CC(c2ccc(Br)cc2)=NO1 (stereo not shown) | 14.8%
13 | O=C(CSc1nc2ccccc2c(=O)n1-c1ccccc1)N/N=C/C=C/c1ccccc1[N+](=O)[O-] | 10.5%
14 | COC(=O)c1ccc2c(=O)n(CC3CCCO3)c(=S)[nH]c2c1 (stereo not shown) | 11.1%
15 | O=C(/C=C/c1ccc([N+](=O)[O-])o1)NNC(=O)c1ccc(F)cc1 | 2.67%
16 | S=c1[nH]c(-c2ccccc2)cn1/N=C/c1ccc(Br)cc1 | 14.6%
17 | CC(=O)N(c1ccccc1)C1SC(=O)N(c2ccccc2)C1=O (stereo not shown) | 13.9%
18 | Cc1cc(C)c2cc(CN(CCO)Cc3nnnn3Cc3ccccc3)c(=O)[nH]c2c1 | -7.71%
19 | Cc1ccc2c(Cl)c(C(=O)N/N=C/c3cccn3C)sc2c1 | 6.91%
20 | O=C(c1cccc(OC2CCN(C3CCCC3)CC2)c1)N1CCCCCCC1 | -36%
21 | O=C(O)CN(C1CCCCC1)S(=O)(=O)c1ccc(F)cc1 | 5.4%
22 | CCOC(=O)C1CCN(c2c(NCc3ccc(C(=O)NC4CCCC4)cc3)c(=O)c2=O)CC1 | -16.2%

Row | Structure (SMILES) | hERG current change (%, negative = inhibition) at 10uM
23 | CC1CCc2ccccc2N1C(N)=Nc1ccccc1.Cl (stereo not shown) | 5.35%
24 | COC(=O)c1ccc(C)c(NC(=O)C2CC(=O)N(C3CCCC(C)C3C)C2)c1 (stereo not shown) | -11.5%
25 | C[C@]12CCC3C(CC[C@H]4CC(O)CC[C@]34C)C1CC/C2=N/NC(=O)c1ccncc1 (stereo partly shown) | -10.8%
26 | CN(C)c1ccc(C2CNC(c3ccc(Cl)c([N+](=O)[O-])c3)c3[nH]c4ccccc4c32)cc1.Cl (stereo not shown) | -4.32%
27 | Cc1c(C)n2c(SCC(=O)N3CCCC3)nnc2[nH]c1=O | 3.87%
28 | Cc1ccc(S(=O)(=O)N2CCN(C(=O)c3sccc3-c3ccccc3)CC2)cc1 | -28.9%
29 | CC(O)CC(C(=O)NNc1ccccc1)C(=O)NNc1ccccc1 (stereo not shown) | 21%
30 | COc1cccc(NC(=O)COC(=O)c2cc(S(=O)(=O)N3CCOCC3)ccc2C)c1 | -11.6%
31 | O=c1ccc(-c2nc3ccccc3n2Cc2ccccc2Cl)c[nH]1 | -11.9%
32 | CCOc1ccc(NS(=O)(=O)c2ccc3c(c2)n(C)c(=O)n3C)cc1 | 15.2%
33 | CCc1ccc(C2=NN(CCC(=O)N3CCC4(CC3)OCCO4)C(=O)CC2)cc1 | -10.3%
34 | N/C(=N\OC(=O)C1CCCCC1)c1ccc(Cl)cc1 | 18.2%
35 | NC(=O)C1(C(N)=O)OC1c1ccc(Cl)c(Cl)c1 (stereo not shown) | -9.36%
36 | O=C(CCOc1ccccc1)NCC(c1ccco1)N1CCCCC1 (stereo not shown) | 1.76%
37 | CN(Cc1ccc(Br)cc1)CC(O)COc1cccc(Br)c1 (stereo not shown) | -28.5%
38 | N#Cc1nc(-c2ccccc2F)oc1N1CCN(C(=O)c2ccco2)CC1 | -18.2%
39 | O=C(Nc1nccs1)C1CCCN1S(=O)(=O)c1ccc(F)cc1 (stereo not shown) | -2.17%
40 | O=C(O)C1CCCN1C(=O)Oc1ccccc1 (stereo not shown) | -7.36%
41 | N[C@@H]1CONC1=O | 19.1%
42 | O=C(CSc1nc(C2CC2)nc2ccccc12)Nc1ccccc1N1CCOCC1 | 24.5%
43 | NC(=O)c1sc2nc(-c3ccccc3)ccc2c1N | 18.7%
44 | CCOC(=O)N1CCN(S(=O)(=O)c2ccc(Cl)cc2)CC1 | 0.615%

Row | Structure (SMILES) | hERG current change (%, negative = inhibition) at 10uM
45 | CCc1cc2c(SCC(=O)O)ncnc2s1 | 3.19%
46 | CCCCN1C(=O)N(C)C2NC(=S)NC21 (stereo not shown) | 10.9%
47 | CC1CCN(C(=O)C2CCC(C)(C(=O)O)C2(C)C)CC1 (stereo not shown) | 0.819%
48 | COCCN(Cc1cc2cc3c(cc2nc1Cl)OCO3)C(=O)Nc1ccc(F)cc1 | -30%
49 | Cn1nc(C(=O)OCC(=O)Nc2ccc3ccccc3c2)c2ccccc2c1=O | 8.04%
50 | O=C([C@H](Cc1ccccc1)N1C(=O)c2ccccc2C1=O)N1CCOCC1 | 4.76%
51 | FC(F)(F)c1cccc(Oc2nc(-c3ccccc3)nnc2C(F)(F)F)c1 | -6.42%
52 | NC(=NC(=O)c1ccc(OC(F)(F)F)cc1)c1ccc(C(F)(F)F)cn1 | 9.2%
53 | COC(=O)c1c(C)cc(C)n2c1nc1ccccc12 | -20.1%
54 | COC(=O)C(C)Sc1nc(NCc2ccccc2)nc(N(C)C)n1 (stereo not shown) | 24.6%
55 | CCN(CC(=O)NCc1ccc(Cl)cc1)C(=O)COc1ccc(Cl)cc1Br | -67.7%
56 | Cc1ccc(-n2nnnc2CS(=O)(=O)c2ccccc2)c(C)c1 | 19.2%
57 | Cc1cc(OC(C)C(=O)NCCCN2CCOCC2)ccc1Cl (stereo not shown) | -23.8%
58 | Cc1ccc(C(=O)N/N=C(/CC(=O)c2cccs2)C(F)(F)F)cc1 | 11%
59 | CCN(CC)CCN=C1CCCc2ccccc2N1 | -0.228%
60 | CN(CC(=O)Nc1ccc(N2CCOCC2)cc1)C(=O)CCNC(=O)c1ccc(Br)cc1 | 3.43%
61 | Cc1onc(-c2c(Cl)cccc2Cl)c1C(=O)Nc1nccs1 | 17.1%
62 | COc1ccccc1Cn1c(=S)[nH]c2cc(C(=O)NCC3CCCO3)ccc2c1=O (stereo not shown) | 11.9%
63 | Cc1ccc(NC(=O)C2CCCN(S(=O)(=O)c3cnc[nH]3)C2)cc1F (stereo not shown) | 2.95%
64 | Cn1ccc(C(=O)NC(=S)N2CCSCC2)n1 | 9.2%
65 | O=C(CN1CCN(c2ccccc2F)CC1)c1ccc2c(c1)OCO2 | -10.3%
66 | Cc1cccc(S(=O)(=O)Nc2nc3ccccc3nc2NCC2CCCO2)c1 (stereo not shown) | 7.29%

Row | Structure (SMILES) | hERG current change (%, negative = inhibition) at 10uM
67 | CCn1c(SCC(=O)NC2CC2)nnc1-c1csc(C)c1 | 16.3%
68 | CCOC(=O)N1CCN(C2=C(NS(=O)(=O)c3ccc(C)cc3)C(=O)c3ccccc3C2=O)CC1 | -20.7%
69 | COC(=O)C1=C(CS(=O)(=O)c2cc(OC)ccc2OC)NC(=O)NC1c1ccc(O)c(OC)c1 (stereo not shown) | 3.68%
70 | Cc1ccc(CNC(=O)C2CCN(c3nnc(N4CCCC4=O)s3)CC2)cc1 | 14.4%
71 | CCOC(=O)N1CCN(C(=O)CS(=O)(=O)c2cn(Cc3ccccc3C)c3ccccc23)CC1 | -0.785%
72 | O=C(N/N=C/c1ccc[nH]1)c1ccccc1OCc1ccccc1Cl | -25.5%
73 | CC[C@@H](C)[C@H](NC(=O)OC(C)(C)C)c1nnc(S(=O)(=O)Cc2cc(C)ccc2C)o1 | 4.09%
74 | Cc1ccc(S(=O)(=O)N2CCC(=O)N(C(COCc3cccc(C)c3)C(C)C)CC2)cc1 (stereo not shown) | -40.8%
75 | COc1ccccc1/C=C/C(=O)NCC(=O)N/N=C/c1ccc(C)o1 | -9.21%
76 | S=C(NCc1ccco1)Nc1ccc(Oc2ccc(Cl)cc2)cc1 | 0.238%
77 | Cc1ccc(-c2nnc(-n3nnc4ccccc43)c3ccccc23)cc1 | 21.8%
78 | COc1cc(S(=O)(=O)NCC2COCCO2)ccc1-n1cnnn1 (stereo not shown) | -42.3%
79 | COc1ccc(-c2oc3ccc(-c4ccc5c(c4)OCO5)cc3c2-c2ccc(OC)nc2)cc1 | 23.9%
80 | Cc1cc(C)nc(N2CCCC(C(=O)NC3CC3)C2)n1 (stereo not shown) | 1.71%
81 | CS(=O)(=O)N(CC(=O)Nc1ccccc1C(=O)N1CCOCC1)c1cccc(F)c1 | -0.955%
82 | Cl.NCCC1CCCC(CCN)N1 (stereo not shown) | -3.51%
83 | Cc1ccc(SCC(=O)c2ccc(CC(=O)O)s2)cc1 | 7.43%
84 | Cc1cccc(OCc2nnc(SCc3nc4cc(C(F)(F)F)ccc4c(=O)[nH]3)o2)c1 | 12.5%
85 | COc1cccc(-n2cc(CN(C)Cc3nc(Cc4cccc(F)c4)no3)cn2)c1 | -10.3%
86 | Cc1cccc(CSC(=N)N)c1 | 1.28%
87 | Cc1ccc(NCC(=O)Nc2ccc(Br)cc2)cc1F | -0.784%
88 | COc1ccc(C(=O)C2CCCN(C(=O)c3ccc4nccnc4c3)C2)c(C)c1 (stereo not shown) | 1.53%

Source: article PMC4336329 (PLoS ONE, 2015)
